The whole screen tested about 310,000 compounds, of which about 2,200 (0.71%) showed an effect of 50% or more. The effect is printed as a negative number. This is one part of the list.
Molecular target: human ether-à-go-go-related gene (hERG) potassium channel (human, UniProt Q12809)
Assay: primary screen, population patch clamp on CHO cells stably expressing hERG

Chain of human ether-à-go-go-related gene (hERG) potassium channel (Q12809 whole entry, looked up): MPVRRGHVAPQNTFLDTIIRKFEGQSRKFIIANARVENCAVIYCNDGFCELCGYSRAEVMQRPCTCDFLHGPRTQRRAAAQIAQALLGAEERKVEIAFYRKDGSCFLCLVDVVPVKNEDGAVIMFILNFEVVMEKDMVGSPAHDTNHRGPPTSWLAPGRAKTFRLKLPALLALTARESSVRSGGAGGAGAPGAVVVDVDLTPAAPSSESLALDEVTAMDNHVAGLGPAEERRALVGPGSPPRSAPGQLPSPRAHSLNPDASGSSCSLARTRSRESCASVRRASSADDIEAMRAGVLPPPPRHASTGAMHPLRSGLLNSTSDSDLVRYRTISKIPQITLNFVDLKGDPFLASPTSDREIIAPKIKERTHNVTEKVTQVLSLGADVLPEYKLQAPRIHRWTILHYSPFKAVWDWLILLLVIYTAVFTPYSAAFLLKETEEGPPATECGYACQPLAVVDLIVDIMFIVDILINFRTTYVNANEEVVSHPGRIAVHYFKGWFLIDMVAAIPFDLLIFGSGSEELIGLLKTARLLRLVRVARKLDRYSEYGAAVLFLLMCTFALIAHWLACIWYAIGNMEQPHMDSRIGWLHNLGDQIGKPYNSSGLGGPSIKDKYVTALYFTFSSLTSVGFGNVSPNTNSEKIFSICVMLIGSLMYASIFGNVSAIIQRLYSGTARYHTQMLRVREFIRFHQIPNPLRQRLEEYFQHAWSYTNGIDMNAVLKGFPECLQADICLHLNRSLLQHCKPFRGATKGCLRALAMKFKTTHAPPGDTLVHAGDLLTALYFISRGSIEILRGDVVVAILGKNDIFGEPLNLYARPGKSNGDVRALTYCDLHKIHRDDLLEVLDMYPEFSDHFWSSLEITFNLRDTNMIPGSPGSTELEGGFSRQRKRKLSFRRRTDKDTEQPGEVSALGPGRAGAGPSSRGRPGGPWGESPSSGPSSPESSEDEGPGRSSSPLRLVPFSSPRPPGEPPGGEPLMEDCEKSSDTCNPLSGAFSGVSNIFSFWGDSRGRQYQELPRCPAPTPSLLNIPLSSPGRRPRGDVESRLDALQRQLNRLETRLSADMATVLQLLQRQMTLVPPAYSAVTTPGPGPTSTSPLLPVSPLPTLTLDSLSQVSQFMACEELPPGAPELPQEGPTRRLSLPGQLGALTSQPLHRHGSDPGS

Row | SMILES | hERG current change (%, negative = inhibition) at 1uM [%]
1 | O=C(c1ccc(=O)oc1)N1CCCc2ccccc21 | 1.93
2 | CCC(C)[C@H](NC(=O)[C@@H]1CSC2c3ccccc3C(=O)N21)C(=O)NC1CCCC1 (stereo partly drawn) | 7.25
3 | CCOC(=O)c1sc(C)c(C(N)=O)c1NC1=NCCCCC1 | -14.9
4 | CCOC(=O)C1(Cc2ccccc2Cl)CCN(Cc2csc(C(C)=O)c2)CC1 | 7.58
5 | Cc1nn(CC(=O)NC(=O)NC2CCCCC2C)c(=O)c(C#N)c1C (stereo not drawn) | 12.2
6 | COc1ccc(CN2C(=O)c3ccccc3C2=O)cc1C(=O)OC(C)C(=O)NC(N)=O (stereo not drawn) | 18.5
7 | C=C(C)C1CC=C(CN2CCC(O)CC2)CC1 (stereo not drawn) | 3
8 | COCCCNC(=O)CCc1nc2cccnc2n1Cc1ccccc1 | -11.9
9 | Cc1ccc(S(=O)(=O)Nc2cccc(C(=O)NCC(c3ccco3)N3CCCCC3)c2)cc1F (stereo not drawn) | 1.04
10 | CCCOc1ccc(C2NC(=O)CCC2[N+](=O)[O-])cc1 (stereo not drawn) | 16.6
11 | COc1ccccc1CNC(=O)CSc1ncc(C(=O)Nc2ccccc2)c(=O)n1C | 3.62
12 | COc1ccc(/C=C/CN2CCC(CO)(Cc3ccccc3Cl)CC2)cc1 | -61.9
13 | COc1cc(O)cc2cc3c(c(O)c12)C(=O)CC(C)(O)O3 (stereo not drawn) | 3.61
14 | CC(C)(C)C(=O)CN1C(=O)C2(OCCO2)c2ccccc21 | 10.3
15 | CCOc1ccccc1NC(=O)CN1CCC(NC(=O)Nc2ccccc2)CC1 | -4.93
16 | CCC(CC)C(=O)Nc1cccc(C(=O)Nc2ccc(S(=O)(=O)Nc3ccc(C)cc3)cc2)c1 | 0.912
17 | CCCNS(=O)(=O)c1ccc(OCC(=O)NCc2ccc3c(c2)OCO3)cc1 | 2.98
18 | O=C(CN1C(=O)NC2(CCCCCC2)C1=O)c1ccccc1 | -0.357
19 | COc1cccc(CC(=O)Nc2ccc(S(=O)(=O)Nc3nc(C)cc(C)n3)cc2)c1 | 11
20 | CCOC(=O)C1=C(CC)OC(N)=C(C#N)C1c1cc(OC)ccc1OC (stereo not drawn) | 8.35
21 | CC1=C(C(=O)OC(C)C)C(c2cccnc2)n2ncnc2N1 (stereo not drawn) | 11.9
22 | COc1ccc(-c2cc(C(=O)Nc3ccc(F)cc3F)no2)cc1 | 10.9
23 | O=C(NO)c1ccccc1C(F)(F)F | 15.9

Row | SMILES | hERG current change (%, negative = inhibition) at 1uM [%]
24 | CCOC(=O)N1CCC(NC(=O)c2ccc(CO)c(C(=O)NC3CCN(C(=O)OCC)CC3)c2)CC1 | 10.9
25 | Cc1ccc(-c2csc(NC(=O)c3ccco3)n2)cc1C | 11.6
26 | O=C(COc1ncnc2ccccc12)NCCC1=CCCCC1 | -2.84
27 | CC1(C)Cc2c(c(N3CCOCC3)nc3sc(C(=O)N4CCCCC4)c(N)c23)CO1 | 14.7
28 | O=C(NNC(=O)c1sccc1-n1cccc1)Nc1ccccc1 | 20.6
29 | Cc1nc2ccc(N=NC3=C(O)CC(C)(C)CC3=O)cc2s1 | -19
30 | COc1ccc(/C=C2\SC(=S)N(CCC(=O)Nc3ccc(O)cc3)C2=O)cc1 | 8.68
31 | CC1CN(C(=O)c2ccc(-c3cccc(C(F)(F)F)c3)o2)CC(C)O1 (stereo not drawn) | -5.14
32 | C=CCn1c(C(C)NC(=O)c2ccccc2)n[nH]c1=S (stereo not drawn) | -7.98
33 | CCn1c(CC(=O)Nc2ccccc2C)nnc1SCC(=O)NC1=NCCS1 | 14.9
34 | Cc1ccc(S(=O)(=O)NCCC(=O)Nc2ccc(S(=O)(=O)NC(C)C)cc2)cc1 | 11.4
35 | CCN(CC)S(=O)(=O)c1cccc(-c2n[nH]c(=S)n2C)c1 | 2.84
36 | CCOc1cc(C(=O)N2CCCN(C)CC2)cc(OCC)c1OCC | 14.9
37 | COC(=O)Cc1ccc(NC(=S)NCCSc2ccc(C)cc2)cc1 | 6.04
38 | O=C(Nc1nccs1)c1ccc(S(=O)(=O)N2CCOCC2)cc1 | 10.4
39 | Cc1cc(NC(=O)CC2Oc3ccccc3NC2=O)ccc1Br (stereo not drawn) | 8.1
40 | Cc1cc(Cl)cc(Cl)c1OCC(=O)NCc1ccco1 | 6.91
41 | CCC(=O)c1ccc(N2CCCC2)c(F)c1 | 16.6
42 | CC(=O)c1ccc(NC(=O)CSc2nnc(C3CC3)n2C)cc1 | 12.5
43 | Cc1ccc(S(=O)(=O)NNC(=O)C2CC=CCC2C(=O)O)cc1 (stereo not drawn) | 11.7
44 | CCOc1ccc(NC2=NCCC(=O)N2Cc2cccs2)cc1.Cl | 2.98
45 | COc1ccccc1OCC(=O)Nc1cc(NC(=O)COc2ccccc2OC)cc(C(=O)O)c1 | 12.4

Source: PMC4336329 (PLoS ONE, 2015)
